Measurements published in the supplement of paper PMC8728848.
The list shows a part of the results.

Tests used:
Experiment in all cases: glycan array binding signal (z-score within array); higher = stronger binding
Conditions in all cases: glycan notation: IUPAC condensed, linker removed
[1] = target: Fuc(a1-2)[Gal(a1-3)]Gal(b1-4)GlcNAc(b1-2)Man(a1-3)[Fuc(a1-2)[Gal(a1-3)]Gal(b1-4)GlcNAc(b1-2)Man(a1-6)]Man(b1-4)GlcNAc(b1-4)GlcNAc
Method in brief: (§1)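 Arrays were curated from the Consortium for Functional Glycomics database, 3228 in total, and kept only where the protein sequence was available. Binding is expressed as a within-array Z-score. This score was averaged across arrays of the same protein sequence at different concentrations or buffers and across linkers, and negative values can be read as non-binding.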

[2] = target: Fuc(a1-2)[Gal(a1-3)]Gal(b1-4)GlcNAc(b1-2)Man(a1-3)[Fuc(a1-2)[Gal(a1-3)]Gal(b1-4)GlcNAc(b1-2)Man(a1-6)]Man(b1-4)GlcNAc(b1-4)[Fuc(a1-6)]GlcNAc
Method in brief: as §1

[3] = target: Fuc(a1-2)[Gal(a1-3)]Gal(b1-4)GlcNAc(b1-3)GalNAc
Method in brief: as §1

[4] = target: Fuc(a1-2)[Gal(a1-3)]Gal(b1-4)GlcNAc(b1-3)[Fuc(a1-2)[Gal(a1-3)]Gal(b1-4)GlcNAc(b1-6)]GalNAc
Method in brief: as §1

[5] = target: Fuc(a1-2)[Gal(a1-3)]Gal(b1-4)GlcNAc(b1-6)GalNAc
Method in brief: as §1

[6] = target: Fuc(a1-2)[Gal(a1-3)]Gal(b1-4)[Fuc(a1-3)]Glc
Method in brief: as §1

[7] = target: Fuc(a1-2)[Gal(a1-3)]Gal(b1-4)[Fuc(a1-3)]GlcNAc
Method in brief: as §1

[8] = target: Fuc(a1-2)[Gal(a1-3)]Gal(b1-4)[Fuc(a1-3)]GlcNAc(b1-3)GalNAc
Method in brief: as §1

[9] = target: Fuc(a1-2)[Gal(a1-4)]Gal(b1-4)GlcNAc
Method in brief: as §1

[10] = target: Fuc(a1-2)[GalNAc(a1-3)]Gal
Method in brief: as §1

[11] = target: Fuc(a1-2)[GalNAc(a1-3)]Gal(b1-3)GalNAc(a1-3)[Fuc(a1-2)]Gal(b1-4)GlcNAc
Method in brief: as §1

[12] = target: Fuc(a1-2)[GalNAc(a1-3)]Gal(b1-3)GalNAc(b1-3)Gal(a1-4)Gal(b1-4)Glc
Method in brief: as §1

[13] = target: Fuc(a1-2)[GalNAc(a1-3)]Gal(b1-3)GlcNAc
Method in brief: as §1

[14] = target: Fuc(a1-2)[GalNAc(a1-3)]Gal(b1-3)GlcNAc(b1-2)Man(a1-3)[Fuc(a1-2)[GalNAc(a1-3)]Gal(b1-3)GlcNAc(b1-2)Man(a1-6)]Man(b1-4)GlcNAc(b1-4)GlcNAc
Method in brief: as §1

[15] = target: Fuc(a1-2)[GalNAc(a1-3)]Gal(b1-3)GlcNAc(b1-2)Man(a1-3)[Fuc(a1-2)[GalNAc(a1-3)]Gal(b1-3)GlcNAc(b1-2)Man(a1-6)]Man(b1-4)GlcNAc(b1-4)[Fuc(a1-6)]GlcNAc
Method in brief: as §1

[16] = target: Fuc(a1-2)[GalNAc(a1-3)]Gal(b1-3)GlcNAc(b1-3)GalNAc
Method in brief: as §1

[17] = target: Fuc(a1-2)[GalNAc(a1-3)]Gal(b1-3)GlcNAc(b1-6)GalNAc
Method in brief: as §1

[18] = target: Fuc(a1-2)[GalNAc(a1-3)]Gal(b1-4)Glc
Method in brief: as §1

[19] = target: Fuc(a1-2)[GalNAc(a1-3)]Gal(b1-4)GlcNAc
Method in brief: as §1

[20] = target: Fuc(a1-2)[GalNAc(a1-3)]Gal(b1-4)GlcNAc(b1-2)Man
Method in brief: as §1

[21] = target: Fuc(a1-2)[GalNAc(a1-3)]Gal(b1-4)GlcNAc(b1-2)Man(a1-3)[Fuc(a1-2)[GalNAc(a1-3)]Gal(b1-4)GlcNAc(b1-2)Man(a1-6)]Man(b1-4)GlcNAc(b1-4)GlcNAc
Method in brief: as §1

[22] = target: Fuc(a1-2)[GalNAc(a1-3)]Gal(b1-4)GlcNAc(b1-2)Man(a1-3)[Fuc(a1-2)[GalNAc(a1-3)]Gal(b1-4)GlcNAc(b1-2)Man(a1-6)]Man(b1-4)GlcNAc(b1-4)[Fuc(a1-6)]GlcNAc
Method in brief: as §1

[23] = target: Fuc(a1-2)[GalNAc(a1-3)]Gal(b1-4)GlcNAc(b1-3)Gal(b1-4)GlcNAc
Method in brief: as §1

[24] = target: Fuc(a1-2)[GalNAc(a1-3)]Gal(b1-4)GlcNAc(b1-3)Gal(b1-4)GlcNAc(b1-3)Gal(b1-4)GlcNAc
Method in brief: as §1

[25] = target: Fuc(a1-2)[GalNAc(a1-3)]Gal(b1-4)GlcNAc(b1-3)GalNAc
Method in brief: as §1

[26] = target: Fuc(a1-2)[GalNAc(a1-3)]Gal(b1-4)GlcNAc(b1-3)[Fuc(a1-2)[GalNAc(a1-3)]Gal(b1-4)GlcNAc(b1-6)]GalNAc
Method in brief: as §1

[27] = target: Fuc(a1-2)[GalNAc(a1-3)]Gal(b1-4)GlcNAc(b1-6)GalNAc
Method in brief: as §1

[28] = target: Fuc(a1-2)[GalNAc(a1-3)]Gal(b1-4)[Fuc(a1-3)]GlcNAc
Method in brief: as §1

[29] = target: Fuc(a1-2)[GalNAc(a1-3)]Gal(b1-4)[Fuc(a1-3)]GlcNAc(b1-3)GalNAc
Method in brief: as §1

[30] = target: Fuc(a1-2)[GalNAc(a1-4)]Gal(b1-4)GlcNAc
Method in brief: as §1

[31] = target: Fuc(a1-2)[GalNAc(b1-3)]Gal
Method in brief: as §1

Fuc(a1-3)GlcNAc = target: Fuc(a1-3)GlcNAc
Method in brief: as §1

[32] = target: Fuc(a1-3)[Gal(b1-4)]Glc6S
Method in brief: as §1

[33] = target: Fuc(a1-3)[Gal(b1-4)]GlcNAc
Method in brief: as §1

[34] = target: Fuc(a1-3)[Gal(b1-4)]GlcNAc(b1-2)Man
Method in brief: as §1

[35] = target: Fuc(a1-3)[Gal(b1-4)]GlcNAc(b1-2)Man(a1-3)[Fuc(a1-3)[Gal(b1-4)]GlcNAc(b1-2)Man(a1-6)]Man(b1-4)GlcNAc(b1-4)GlcNAc
Method in brief: as §1

[36] = target: Fuc(a1-3)[Gal(b1-4)]GlcNAc(b1-2)Man(a1-3)[Fuc(a1-3)[Gal(b1-4)]GlcNAc(b1-2)Man(a1-6)]Man(b1-4)GlcNAc(b1-4)[Fuc(a1-6)]GlcNAc
Method in brief: as §1

[37] = target: Fuc(a1-3)[Gal(b1-4)]GlcNAc(b1-3)Gal(b1-3)[Fuc(a1-4)]GlcNAc
Method in brief: as §1

[38] = target: Fuc(a1-3)[Gal(b1-4)]GlcNAc(b1-3)Gal(b1-4)[Fuc(a1-3)]GlcNAc
Method in brief: as §1

[39] = target: Fuc(a1-3)[Gal(b1-4)]GlcNAc(b1-3)Gal(b1-4)[Fuc(a1-3)]GlcNAc(b1-3)Gal(b1-4)[Fuc(a1-3)]GlcNAc
Method in brief: as §1

[40] = target: Fuc(a1-3)[Gal(b1-4)]GlcNAc(b1-3)GalNAc
Method in brief: as §1

[41] = target: Fuc(a1-3)[Gal(b1-4)]GlcNAc(b1-6)GalNAc
Method in brief: as §1

[42] = target: Fuc(a1-3)[Gal(b1-4)]GlcNAc(b1-6)[Gal(b1-3)GlcNAc(b1-3)]Gal(b1-4)Glc
Method in brief: as §1

[43] = target: Fuc(a1-3)[Gal(b1-4)]GlcNAc6S
Method in brief: as §1

[44] = target: Fuc(a1-3)[Gal3S(b1-4)]Glc
Method in brief: as §1

[45] = target: Fuc(a1-3)[Gal3S(b1-4)]GlcNAc
Method in brief: as §1

[46] = target: Fuc(a1-3)[Gal3S(b1-4)]GlcNAc6S
Method in brief: as §1

[47] = target: Fuc(a1-3)[GalNAc(b1-4)]GlcNAc
Method in brief: as §1

[48] = target: Fuc(a1-3)[GalNAc(b1-4)]GlcNAc6S
Method in brief: as §1

Fuc(a1-4)GlcNAc = target: Fuc(a1-4)GlcNAc
Method in brief: as §1

Fuc(b1-3)GlcNAc = target: Fuc(b1-3)GlcNAc
Method in brief: as §1

Gal(a1-2)Gal = target: Gal(a1-2)Gal
Method in brief: as §1

Gal(a1-3)Gal = target: Gal(a1-3)Gal
Method in brief: as §1

Gal(a1-3)Gal(b1-3)GlcNAc = target: Gal(a1-3)Gal(b1-3)GlcNAc
Method in brief: as §1

[49] = target: Gal(a1-3)Gal(b1-3)GlcNAc(b1-2)Man
Method in brief: as §1

[50] = target: Gal(a1-3)Gal(b1-3)GlcNAc(b1-2)Man(a1-3)[Gal(a1-3)Gal(b1-3)GlcNAc(b1-2)Man(a1-6)]Man(b1-4)GlcNAc(b1-4)GlcNAc
Method in brief: as §1

[51] = target: Gal(a1-3)Gal(b1-3)GlcNAc(b1-3)GalNAc
Method in brief: as §1

[52] = target: Gal(a1-3)Gal(b1-3)GlcNAc(b1-6)GalNAc
Method in brief: as §1

[53] = target: Gal(a1-3)Gal(b1-3)[Fuc(a1-4)]GlcNAc(b1-2)Man(a1-3)[Gal(a1-3)Gal(b1-3)[Fuc(a1-4)]GlcNAc(b1-2)Man(a1-6)]Man(b1-4)GlcNAc(b1-4)GlcNAc
Method in brief: as §1

Gal(a1-3)Gal(b1-4)Glc = target: Gal(a1-3)Gal(b1-4)Glc
Method in brief: as §1

B1: Epa1 (Candida glabrata) (protein)
chain: MGSSHHHHHHSSGLVPRGSHMTSSNDISLASKDPTTFPLGCSPDITTPKKGLSMELYSYDFRKKGSYPCWDAAYLDPNYPRTGYKSHRLLAKVDGVTGNINFYYHATKGCTPQLGHLPASYNYPKPLTMTNFTMLLYGYFRPKVTGFHTFTISADDLLFVNFGAGNAFDCCRRDSSADHFGNYQAYAIWGSKTAKDELTVHLDAGVYYPIRLFYNNREYDGALSFTFKTESNENTVSDFSEYFFSLDDTEEGCPGLISYD
glycan array binding signal (z-score) [1]: -0.31
glycan array binding signal (z-score) [2]: -0.32
glycan array binding signal (z-score) [3]: -0.289
glycan array binding signal (z-score) [4]: -0.235
glycan array binding signal (z-score) [5]: -0.276
glycan array binding signal (z-score) [6]: -0.313
glycan array binding signal (z-score) [7]: -0.252
glycan array binding signal (z-score) [8]: -0.248
glycan array binding signal (z-score) [9]: -0.091
glycan array binding signal (z-score) [10]: -0.303
glycan array binding signal (z-score) [11]: -0.289
glycan array binding signal (z-score) [12]: -0.306
glycan array binding signal (z-score) [13]: -0.284
glycan array binding signal (z-score) [14]: -0.273
glycan array binding signal (z-score) [15]: -0.272
glycan array binding signal (z-score) [16]: -0.21
glycan array binding signal (z-score) [17]: -0.323
glycan array binding signal (z-score) [18]: -0.325
glycan array binding signal (z-score) [19]: -0.331
glycan array binding signal (z-score) [20]: -0.295
glycan array binding signal (z-score) [21]: -0.25
glycan array binding signal (z-score) [22]: -0.312
glycan array binding signal (z-score) [23]: -0.336
glycan array binding signal (z-score) [24]: -0.205
glycan array binding signal (z-score) [25]: -0.327
glycan array binding signal (z-score) [26]: -0.23
glycan array binding signal (z-score) [27]: -0.16
glycan array binding signal (z-score) [28]: -0.262
glycan array binding signal (z-score) [29]: -0.296
glycan array binding signal (z-score) [30]: -0.299
glycan array binding signal (z-score) [31]: -0.332
glycan array binding signal (z-score) (Fuc(a1-3)GlcNAc): -0.259
glycan array binding signal (z-score) [32]: -0.182
glycan array binding signal (z-score) [33]: -0.326
glycan array binding signal (z-score) [34]: -0.289
glycan array binding signal (z-score) [35]: -0.295
glycan array binding signal (z-score) [36]: -0.149
glycan array binding signal (z-score) [37]: -0.283
glycan array binding signal (z-score) [38]: -0.313
glycan array binding signal (z-score) [39]: -0.204
glycan array binding signal (z-score) [40]: -0.284
glycan array binding signal (z-score) [41]: -0.129
glycan array binding signal (z-score) [42]: -0.12
glycan array binding signal (z-score) [43]: 0.025
glycan array binding signal (z-score) [44]: -0.276
glycan array binding signal (z-score) [45]: -0.259
glycan array binding signal (z-score) [46]: -0.229
glycan array binding signal (z-score) [47]: -0.299
glycan array binding signal (z-score) [48]: -0.352
glycan array binding signal (z-score) (Fuc(a1-4)GlcNAc): -0.292
glycan array binding signal (z-score) (Fuc(b1-3)GlcNAc): -0.306
glycan array binding signal (z-score) (Gal(a1-2)Gal): -0.323
glycan array binding signal (z-score) (Gal(a1-3)Gal): -0.202
glycan array binding signal (z-score) (Gal(a1-3)Gal(b1-3)GlcNAc): -0.256
glycan array binding signal (z-score) [49]: -0.257
glycan array binding signal (z-score) [50]: -0.175
glycan array binding signal (z-score) [51]: -0.295
glycan array binding signal (z-score) [52]: -0.266
glycan array binding signal (z-score) [53]: -0.232
glycan array binding signal (z-score) (Gal(a1-3)Gal(b1-4)Glc): -0.278
